Measurements reported in article PMC12510031.
These are yes or no findings as the source states them, for the method shown. In cells and extracts the contact can be indirect. Some results given as binding are weak or reduced against the parent protein; the word gives no strength. Blank lines part the entries; values can stand above or below the substance they belong to.

By UniProt entry, the sequences of proteins in these tests, tags left out. Where a name states a change or a piece, a line headed by the entry shows the natural chain unless it says otherwise.
UniProt Q5S007: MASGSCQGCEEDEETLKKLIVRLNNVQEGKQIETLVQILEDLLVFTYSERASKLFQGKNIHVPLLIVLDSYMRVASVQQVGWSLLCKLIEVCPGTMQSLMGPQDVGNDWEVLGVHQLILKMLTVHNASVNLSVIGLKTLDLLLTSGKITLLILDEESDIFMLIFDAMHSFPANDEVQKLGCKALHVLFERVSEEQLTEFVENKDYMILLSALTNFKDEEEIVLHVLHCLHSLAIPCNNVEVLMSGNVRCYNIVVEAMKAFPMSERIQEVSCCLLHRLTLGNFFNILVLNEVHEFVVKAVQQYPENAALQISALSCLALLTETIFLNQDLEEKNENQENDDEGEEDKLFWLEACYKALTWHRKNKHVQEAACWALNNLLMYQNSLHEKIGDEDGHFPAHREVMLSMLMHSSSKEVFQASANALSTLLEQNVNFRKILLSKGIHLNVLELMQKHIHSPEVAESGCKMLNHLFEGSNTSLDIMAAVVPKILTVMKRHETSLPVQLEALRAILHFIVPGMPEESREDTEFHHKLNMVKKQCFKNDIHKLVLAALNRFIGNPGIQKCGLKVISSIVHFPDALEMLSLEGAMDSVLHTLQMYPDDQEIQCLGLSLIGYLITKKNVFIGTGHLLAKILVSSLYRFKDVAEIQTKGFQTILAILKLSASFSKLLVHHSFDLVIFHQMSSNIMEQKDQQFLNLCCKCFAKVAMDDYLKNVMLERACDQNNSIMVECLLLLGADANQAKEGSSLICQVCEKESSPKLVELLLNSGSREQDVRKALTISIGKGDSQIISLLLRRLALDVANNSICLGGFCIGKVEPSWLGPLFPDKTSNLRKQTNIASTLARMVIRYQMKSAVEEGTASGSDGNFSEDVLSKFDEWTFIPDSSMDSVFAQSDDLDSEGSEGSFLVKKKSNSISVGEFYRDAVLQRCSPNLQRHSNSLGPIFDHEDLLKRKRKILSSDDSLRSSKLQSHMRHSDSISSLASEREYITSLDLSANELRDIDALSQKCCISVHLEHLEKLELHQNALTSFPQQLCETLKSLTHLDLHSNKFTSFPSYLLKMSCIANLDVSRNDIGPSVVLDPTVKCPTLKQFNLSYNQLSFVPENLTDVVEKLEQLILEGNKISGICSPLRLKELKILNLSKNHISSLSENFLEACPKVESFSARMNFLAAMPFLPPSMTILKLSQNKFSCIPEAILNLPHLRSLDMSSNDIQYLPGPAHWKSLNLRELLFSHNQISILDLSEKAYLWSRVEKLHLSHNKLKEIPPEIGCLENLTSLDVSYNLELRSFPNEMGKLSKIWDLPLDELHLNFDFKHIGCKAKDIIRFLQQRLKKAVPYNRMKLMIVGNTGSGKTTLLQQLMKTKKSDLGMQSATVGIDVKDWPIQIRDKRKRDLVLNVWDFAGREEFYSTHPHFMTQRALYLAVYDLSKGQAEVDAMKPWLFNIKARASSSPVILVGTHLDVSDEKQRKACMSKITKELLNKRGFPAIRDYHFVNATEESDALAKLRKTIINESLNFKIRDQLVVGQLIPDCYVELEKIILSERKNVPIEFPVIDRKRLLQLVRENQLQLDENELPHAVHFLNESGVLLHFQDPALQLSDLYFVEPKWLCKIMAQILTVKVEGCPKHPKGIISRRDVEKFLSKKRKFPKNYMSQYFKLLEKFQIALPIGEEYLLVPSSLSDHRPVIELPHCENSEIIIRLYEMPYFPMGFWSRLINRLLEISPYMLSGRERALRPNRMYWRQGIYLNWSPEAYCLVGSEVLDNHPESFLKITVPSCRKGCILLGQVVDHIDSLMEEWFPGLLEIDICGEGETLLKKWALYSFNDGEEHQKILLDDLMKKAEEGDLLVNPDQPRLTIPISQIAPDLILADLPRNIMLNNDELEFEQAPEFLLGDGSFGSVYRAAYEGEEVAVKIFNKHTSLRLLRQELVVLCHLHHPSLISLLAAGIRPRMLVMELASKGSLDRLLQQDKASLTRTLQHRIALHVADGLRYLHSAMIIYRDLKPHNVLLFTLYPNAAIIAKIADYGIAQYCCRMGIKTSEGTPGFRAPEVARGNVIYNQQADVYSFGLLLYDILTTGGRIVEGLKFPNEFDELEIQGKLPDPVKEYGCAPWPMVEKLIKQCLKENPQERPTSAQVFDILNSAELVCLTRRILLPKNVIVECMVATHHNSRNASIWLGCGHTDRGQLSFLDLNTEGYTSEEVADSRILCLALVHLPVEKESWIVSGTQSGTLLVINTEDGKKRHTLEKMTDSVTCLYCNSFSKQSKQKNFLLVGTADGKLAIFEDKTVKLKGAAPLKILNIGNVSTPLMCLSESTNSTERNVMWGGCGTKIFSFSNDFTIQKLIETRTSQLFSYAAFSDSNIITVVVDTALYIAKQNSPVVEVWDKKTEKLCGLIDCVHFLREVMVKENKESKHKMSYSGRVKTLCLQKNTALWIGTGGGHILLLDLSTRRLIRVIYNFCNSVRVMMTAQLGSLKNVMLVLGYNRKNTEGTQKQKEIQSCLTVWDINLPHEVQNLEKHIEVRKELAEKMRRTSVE
UniProt Q93009: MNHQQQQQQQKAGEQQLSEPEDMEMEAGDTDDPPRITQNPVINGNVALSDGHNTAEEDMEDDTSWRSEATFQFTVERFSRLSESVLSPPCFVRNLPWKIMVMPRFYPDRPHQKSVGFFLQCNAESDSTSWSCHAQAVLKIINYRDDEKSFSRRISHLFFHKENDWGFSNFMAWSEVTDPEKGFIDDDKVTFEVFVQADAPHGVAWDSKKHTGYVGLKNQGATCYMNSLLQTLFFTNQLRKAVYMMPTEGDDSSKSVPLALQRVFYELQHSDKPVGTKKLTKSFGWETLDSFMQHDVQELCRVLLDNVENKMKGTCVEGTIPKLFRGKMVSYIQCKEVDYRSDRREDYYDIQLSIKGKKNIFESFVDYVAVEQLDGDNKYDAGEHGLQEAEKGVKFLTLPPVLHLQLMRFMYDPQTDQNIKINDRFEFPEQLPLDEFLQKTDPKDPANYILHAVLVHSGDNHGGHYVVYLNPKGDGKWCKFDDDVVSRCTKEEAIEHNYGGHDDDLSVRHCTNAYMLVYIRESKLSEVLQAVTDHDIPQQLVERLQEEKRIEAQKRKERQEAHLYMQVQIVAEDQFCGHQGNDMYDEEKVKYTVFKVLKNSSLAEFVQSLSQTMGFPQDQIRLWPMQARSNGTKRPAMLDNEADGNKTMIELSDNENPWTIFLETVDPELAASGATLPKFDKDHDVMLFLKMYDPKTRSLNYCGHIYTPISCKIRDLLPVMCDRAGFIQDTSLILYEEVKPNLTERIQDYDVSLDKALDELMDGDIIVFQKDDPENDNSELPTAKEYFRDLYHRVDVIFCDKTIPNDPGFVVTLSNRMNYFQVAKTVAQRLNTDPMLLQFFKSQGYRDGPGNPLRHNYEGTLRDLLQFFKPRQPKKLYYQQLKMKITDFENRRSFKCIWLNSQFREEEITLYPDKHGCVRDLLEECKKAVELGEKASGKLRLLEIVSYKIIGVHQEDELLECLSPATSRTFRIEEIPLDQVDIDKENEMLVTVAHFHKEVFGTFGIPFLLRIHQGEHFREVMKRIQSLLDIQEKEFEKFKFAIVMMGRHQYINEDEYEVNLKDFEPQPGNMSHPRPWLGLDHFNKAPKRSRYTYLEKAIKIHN
UniProt O15379: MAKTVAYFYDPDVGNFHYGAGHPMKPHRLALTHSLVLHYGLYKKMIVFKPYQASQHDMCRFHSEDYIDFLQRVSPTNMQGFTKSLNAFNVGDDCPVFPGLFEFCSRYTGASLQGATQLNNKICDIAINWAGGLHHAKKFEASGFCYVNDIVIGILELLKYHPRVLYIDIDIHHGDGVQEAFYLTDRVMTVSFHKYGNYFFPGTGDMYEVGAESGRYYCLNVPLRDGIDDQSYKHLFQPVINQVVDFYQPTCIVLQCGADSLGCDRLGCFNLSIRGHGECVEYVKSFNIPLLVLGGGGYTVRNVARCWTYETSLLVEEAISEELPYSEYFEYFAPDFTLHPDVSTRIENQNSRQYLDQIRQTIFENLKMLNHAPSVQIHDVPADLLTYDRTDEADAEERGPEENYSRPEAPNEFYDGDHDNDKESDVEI

How the values were obtained:
[1] = molecular target: Myc- and 6xHis-tagged WT LRRK2 (leucine-rich repeat kinase 2) (UniProt Q5S007); assay: co-IP; HEK293 lysates expressing WT LRRK2 and full-length USP7 or the USP7 deletion mutants D1-D4 (Fig. S1B); antibody of the IP not given
[2] = molecular target: Myc- and 6xHis-tagged WT LRRK2 (leucine-rich repeat kinase 2) (UniProt Q5S007); assay: co-IP; HEK293 cells transfected 24 h with Myc-LRRK2 alone or with Flag-USP7; IP with anti-Myc or anti-Flag; 1% NP-40 lysis buffer, overnight 4 °C
[3] = molecular target: Myc- and 6xHis-tagged WT LRRK2 (leucine-rich repeat kinase 2) (UniProt Q5S007); assay: co-IP; THP-1 cells transfected 24 h with Myc-LRRK2 alone or with Flag-USP7; IP with anti-Myc, blot with anti-Flag; 1% NP-40 lysis buffer (50 mM Tris pH 7.5, 150 mM NaCl, 10% glycerol), overnight 4 °C
[4] = molecular target: Myc- and 6xHis-tagged WT LRRK2 (leucine-rich repeat kinase 2) (UniProt Q5S007); assay: pull-down; lysates of HEK293 cells co-transfected with LRRK2-Myc/6xHis and HA/Flag-USP7; Co2+ TALON magnetic beads, manufacturer's protocol
[5] = molecular target: Myc- and 6xHis-tagged WT LRRK2 (leucine-rich repeat kinase 2) (UniProt Q5S007); assay: pull-down; lysates of HEK293 cells co-transfected with LRRK2-Myc/6xHis and HA/Flag-USP7; Ni-NTA beads 1 h at 4 °C, washes with 10 and 25 mM imidazole (500 mM NaCl, 0.5% Triton X-100), elution with 250 mM imidazole
[6] = molecular target: endogenous USP7 (ubiquitin-specific protease 7) (human (endogenous in THP-1, HEK293, SH-SY5Y)) (UniProt Q93009); assay: co-IP; endogenous proteins, HEK293 lysate; IP with anti-LRRK2 (Fig. 2E) or anti-USP7 (Fig. 8B), IgG as control; 1% NP-40 lysis buffer, overnight 4 °C
[7] = molecular target: Flag-tagged WT HDAC3 (histone deacetylase 3) (UniProt O15379); assay: co-IP; HEK293 cells transfected 24 h with Flag-HDAC3-WT; IP with anti-Flag, blot for endogenous USP7
[8] = molecular target: endogenous LRRK2 (leucine-rich repeat kinase 2) (human (endogenous in THP-1, HEK293, SH-SY5Y)) (UniProt Q5S007); assay: proximity ligation; Duolink PLA kit, primary antibodies against endogenous LRRK2 and USP7; cell line not named
[9] = molecular target: endogenous LRRK2 (leucine-rich repeat kinase 2) (human (endogenous in THP-1, HEK293, SH-SY5Y)) (UniProt Q5S007); assay: co-IP; endogenous proteins, SH-SY5Y lysate; IP with anti-LRRK2, IgG as control; 1% NP-40 lysis buffer, overnight 4 °C
[10] = molecular target: endogenous LRRK2 (leucine-rich repeat kinase 2) (human (endogenous in THP-1, HEK293, SH-SY5Y)) (UniProt Q5S007); assay: co-IP; endogenous proteins, THP-1 whole cell lysate; IP with anti-LRRK2 or anti-USP7, IgG as control; 1% NP-40 lysis buffer, overnight 4 °C
[11] = molecular target: endogenous LRRK2 (leucine-rich repeat kinase 2) (human (endogenous in THP-1, HEK293, SH-SY5Y)) (UniProt Q5S007); assay: co-IP; endogenous proteins, HEK293 lysate; IP with anti-LRRK2 (Fig. 2E) or anti-USP7 (Fig. 8B), IgG as control; 1% NP-40 lysis buffer, overnight 4 °C

Substance: Flag-USP7 1-208 (TRAF domain) (from UniProt Q93009 1-208) (domain or fragment)
binding [1]: binds

Substance: Flag-USP7 776-1102 (last three UBL subdomains, U3-U5) (from UniProt Q93009 776-1102) (domain or fragment)
binding [1]: binds

Substance: endogenous HDAC3 (histone deacetylase 3) (from UniProt O15379 1-428) (enzyme)
binding [6]: no binding

Substance: endogenous USP7 (ubiquitin-specific protease 7) (from UniProt Q93009 1-1102) (enzyme)
binding [7]: no binding | binding [8]: binds | binding [9]: binds | binding [10]: binds | binding [11]: binds

Results, then the substance that gave them:

binding [1]: no binding
Substance: Flag-USP7 206-560 (catalytic domain) (from UniProt Q93009 206-560) (domain or fragment)

binding [1]: no binding
Substance: Flag-USP7 560-776 (first two UBL subdomains, U1+U2) (from UniProt Q93009 560-776) (domain or fragment)

binding [2]: binds | binding [1]: binds | binding [3]: binds
Substance: Flag-tagged human WT USP7 (ubiquitin-specific protease 7) (from UniProt Q93009 1-1102) (enzyme)

binding [4]: binds | binding [5]: binds
Substance: HA/Flag-tagged USP7 (from UniProt Q93009 1-1102) (enzyme)
